Assay results as given in PubChem BioAssay AID1508642 (National Center for Advancing Translational Sciences (NCATS), 2021).
In all, about 43,000 compounds went through this assay and about 200 (0.47%) were called active. Not shown: some 12% with an inconclusive outcome. The call rests on the fitted dose curve; in most records, active means well fitted cell-killing curve with a large enough effect; inconclusive means small, poorly fitted or top-dose-only effect, or effect the other way; inactive means flat fitted curve, though single readings scatter. Some of the results follow.

Assay: Cell viability qHTS assay in S16 Pmp22-F2sN cells; further: nearly all actives have a fitted effect of over 65% in size
Conditions: S16 Pmp22-F2sN Schwann cells (luciferase reporters placed in the Pmp22 gene) viability, CellTiter-Glo, 24 h; series mostly up to 57.5 µM; activity change, negative = cytotoxicity: at the top concentration
Method in brief: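 CellTiter-Glo counter-screen, qHTS, 1536-well. Cells: S16(c9) Pmp22-F2sN, 500-1,000/well in DMEM + 10% FBS. Cpd 23 nL pin transfer, 24 h, 37C/5% CO2. Read: luminescence, CCD imager.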
On the % scale 0 is the no-effect control and ±100 the full control effect; potency means the concentration at half of the fitted maximal effect.

Compound	activity change, negative = cytotoxicity	Potency
CC(C)CC(=O)Nc1ccccc1OCc1cc(=O)n2ccccc2n1	inactive: 9.67%	–
CC(=O)N1CCc2c(sc3c2c(=O)n(-c2cc(Cl)ccc2C)c(=O)n3Cc2ccccc2F)C1	inactive: 3.07%	–
O=C(NCCc1ccc(Cl)cc1)c1cc(-c2ccc(Cl)cc2)n[nH]1	inactive: 0.026%	–
Cc1ccc(CNC(=O)CCCc2nnc3n(C)c(=O)c4sccc4n23)cc1	inactive: 3.73%	–
Cc1ccc(NC(=O)C(=O)NCC(c2ccc3c(c2)OCO3)N2CCOCC2)cc1C (stereo not drawn)	inactive: -4.62%	–
CCC(C)NC(=O)c1ccc2nc(CCc3ccccc3)oc2c1 (stereo not drawn)	inactive: -7.76%	–
COc1ccc(OCC(=O)OCc2cc(=O)n3nc(C4CC4)sc3n2)cc1	inactive: -8.98%	–
CCCCOC(=O)c1ccc(NC(=O)c2cc(-c3cccs3)on2)cc1	inactive: -4.52%	–
Cc1ccc(Nc2c(-c3ccc(C)s3)nc3ncccn23)cc1	inactive: -5.41%	–
CCOC(=O)c1c(NC(=O)/C=C/c2ccc(C)cc2)sc2c1CCCC2	inactive: 5.86%	–
CCOC(=O)c1cnc2cc(F)c(F)cc2c1Nc1ccccc1O	inactive: 7.35%	–
Cn1c(=O)c2c(nc(NCCc3ccccc3)n2Cc2ccc(Cl)cc2)n(C)c1=O	inactive: -22.3%	–
Cc1cccc(C(=O)Nc2sc3c(c2C(=O)NC(C)C)CCCC3)c1	inactive: 18.8%	–
CCOC(=O)c1cc(S(=O)(=O)NCc2cccc(Cl)c2)[nH]n1	inactive: 4.59%	–
CC(=O)c1ccc(N2CCN(C(=O)CCc3nnc4n(C)c(=O)c5sccc5n34)CC2)cc1	inactive: 23.7%	–
CCCCn1c(SCC(=O)Nc2ccc(OCC)cc2)nc2ccsc2c1=O	inactive: -19.2%	–
Cc1ccc(NS(=O)(=O)c2cc3[nH]c(=O)c(=O)[nH]c3cc2C)cc1N(C)C	inactive: -2.04%	–
Cc1ccc(NC(=O)CCCn2c(=O)c3cccn3c3cccnc32)cc1C	inactive: 23.4%	–
CCc1ccccc1NC(=O)[C@@H](c1ccccc1)N1Cc2ccccc2C1=O	inactive: 4.88%	–
CC(C)(C)OC(=O)N1CCC(c2c(C(=O)N3CCCCC3)cnn2-c2cccc(F)c2)CC1	inactive: -12.9%	–
COc1cccc2cc(-c3nc(Nc4cccc(C)c4C)sc3C)c(=O)oc12	inactive: -0.417%	–
Nc1nonc1C(=O)NCCNCc1ccccc1F	inactive: 7.31%	–
CC(=O)C1=C(c2ccc(Cl)c(Cl)c2)N(C(C)=O)n2c(nnc2-c2ccccc2)S1	inactive: 6.69%	–
O=C(COCc1cc(-c2ccc(F)cc2)on1)Nc1cc(Cl)ccc1O	inactive: 24.4%	–
Cc1ccccc1-n1nc(CO)c(C(=O)NCC(c2ccccc2)c2ccccc2)n1	inactive: -3.62%	–

Compound	activity change, negative = cytotoxicity	Potency
COc1ccc(CCNC(=O)CCCn2c(=O)c3ccccc3n(Cc3ccccc3C#N)c2=O)cc1OC	inactive: -0.857%	–
CCOC(=O)c1c(NC(=O)/C=C/c2ccc(C)cc2)sc(C(C)=O)c1C	inactive: 19%	–
COc1cc(C(CC(=O)Nc2cccc(C(C)=O)c2)N2Cc3ccccc3C2=O)cc(OC)c1OC (stereo not drawn)	inactive: -3.09%	–
CC(=O)Nc1nonc1-c1nnc(SCC(=O)Nc2cc(Cl)ccc2C)n1C	inactive: -12.9%	–
CCOC(=O)C(CC)n1nc(C)c2c(C)n(-c3ccc(C)cc3)nc2c1=O (stereo not drawn)	inactive: -13.9%	–
CCCCN(CCCNC(=O)c1cc(Nc2ccc(OC)cc2)nc2ccccc12)Cc1ccccc1	inactive: 0.452%	–
COc1ccc(C(=O)c2sc3nc(-c4ccc(C)cc4)cc(C(F)(F)F)c3c2N)cc1	inactive: 4.39%	–
CCCCc1c(C)nc2c(-c3ccc(Cl)cc3)c(C)[nH]n2c1=O	–	active: 5.01 µM
Cc1ccc(C)c(N2CCN(S(=O)(=O)c3ccc(-c4coc(C)n4)cc3)CC2)c1	inactive: 9.56%	–
Cc1cccc(N2CCN(C(=O)Cn3ncc4c5ccccc5n(C)c4c3=O)CC2C)c1 (stereo not drawn)	inactive: 14.9%	–
Cc1ccc(S(=O)(=O)c2nc(S(=O)(=O)c3ccc(C)cc3)c(NCCCOC(C)C)s2)cc1	inactive: -13.5%	–
O=S(=O)(Nc1ccc(F)c(Cl)c1)c1ccc(Br)s1	inactive: -0.424%	–
Cc1cccc(C(=O)NCCc2nc3ccccc3n2Cc2ccc(Cl)cc2)c1	inactive: -18.7%	–
Cc1ccc(OC(C)C(=O)N2CCN(CCc3ccncc3)CC2)cc1C (stereo not drawn)	inactive: 1.79%	–
CCOC(=O)c1cccc(NS(=O)(=O)c2ccc3[nH]c4c(c3c2)CCCC4)c1	inactive: -23.2%	–
CCCCc1ccc(-n2nc3cc(Cl)c(NC(=O)c4ccc(OC)cc4)cc3n2)cc1	inactive: 7.38%	–
Cc1ccc(-n2cnc3cc(C(=O)NCc4ccc(F)cc4)ccc32)c(C)c1	inactive: 20.6%	–
Cc1ccc(NC(=O)CN2CCN(c3ccccc3F)CC2)cc1F	inactive: -0.535%	–
Cc1ccc(NC(=O)c2ccc(Cl)cc2Cl)c(C(=O)c2ccccc2)c1	inactive: -4.2%	–
CCOc1ccc(-c2cc3c(=O)n(Cc4nc(-c5ccccc5OCC)oc4C)ccn3n2)cc1Cl	inactive: 9.83%	–
O=S(=O)(NCc1ccc(Cl)cc1)c1ccc2[nH]c3c(c2c1)CCCC3	inactive: -1.49%	–
Cc1ccc(Cn2c(C)c(CNCC(C)c3ccccc3)c(C(=O)O)c2C)cc1 (stereo not drawn)	inactive: 0.651%	–
CCC(CC)C(=O)Nc1ccccc1SCc1cc(=O)c2cccc(C)c2[nH]1	inactive: -18%	–
COCCCNC(=O)C1CCC(Cn2c(=O)c3sccc3n(C)c2=O)CC1 (stereo not drawn)	inactive: 7.11%	–
Cc1nc2cccnc2n1C1CCN(C(=O)Nc2ccccc2)CC1	inactive: -0.397%	–

Compound	activity change, negative = cytotoxicity	Potency
Cc1cc(C)cc(N2CC(c3nnc(NC(=O)c4ccco4)s3)CC2=O)c1 (stereo not drawn)	inactive: 1.34%	–
COc1cc(C(=O)Nc2ccc(-n3c(C)nc4ccccc4c3=O)cc2)cc(OC)c1OC	inactive: -23.8%	–
O=c1c(=O)n(-c2ccccc2)ccn1Cc1c(F)cccc1Cl	inactive: -0.212%	–
CCOc1cccc(NC(=O)c2sc3nc(-c4ccc(F)cc4)ccc3c2N)c1	inactive: 5.16%	–
COc1cc(CNCCSc2nnnn2C)ccc1OCc1ccc(C)cc1	inactive: -0.323%	–
CCSc1ncc(Cl)c(C(=O)N(Cc2ccccc2)c2ccc(OC)cc2)n1	inactive: -17.5%	–
O=C(COCc1cc(-c2cccs2)on1)N1CCN(c2ccc(F)cc2)CC1	inactive: 3.11%	–
CCOC(=O)C1CCN(C(c2ccc(OCC)cc2)c2c(O)cc(C)n(CCOC)c2=O)CC1 (stereo not drawn)	inactive: -2.95%	–
COc1ccc(CNS(=O)(=O)c2cc(Br)cc3c2N(C(C)=O)C(C)C3)cc1 (stereo not drawn)	inactive: 5.91%	–
O=C(NCc1cccc(F)c1)c1ccc(CN2CC(=O)N3CCCCC3C2=O)cc1 (stereo not drawn)	inactive: 8.16%	–
O=c1c2oc3ccccc3c2n(Cc2ccc(F)cc2)c(=O)n1Cc1ccco1	inactive: -3.45%	–
CCCCn1c(=NC(=O)c2c(-c3c(F)cccc3Cl)noc2C)c(C(=O)OCC)cc2c(=O)n3ccccc3nc21	inactive: -0.877%	–
Cc1ccc(-c2noc(-c3ccc(NCc4cccnc4)c([N+](=O)[O-])c3)n2)cc1	inactive: -3.56%	–
Cc1c(C(=O)OCc2ccccc2)[nH]c2c1C(=O)CC(c1ccc(N(C)C)cc1)C2 (stereo not drawn)	inactive: -4.35%	–
COc1ccc(NC(=O)CN2C(=O)C(C)(C)c3cc(S(=O)(=O)N4CCCCC4)ccc32)cc1Cl	inactive: -1.57%	–
Cc1nn2c3c(cnc2c1-c1ccc(Cl)cc1)C(=O)CC(c1ccc(C(C)C)cc1)C3 (stereo not drawn)	inactive: 1.67%	–
CCc1sc(Nc2cccc(Cl)c2)nc1-c1cc2cccc(OC)c2oc1=O	inactive: -1.18%	–
COc1cccc(-n2c(SCC(=O)c3ccccc3)nc3c([nH]c4ccccc43)c2=O)c1	inactive: 29.6%	–
O=c1oc2cc(O)ccc2cc1-c1nc(-c2ccc(Cl)c(Cl)c2)cs1	inactive: 3.13%	–
CCCn1c(COc2cccc(C)c2)nc2ccccc21	inactive: -0.363%	–
Cc1ccc(S(=O)(=O)C(CNC(=O)COc2ccccc2)c2cccs2)cc1 (stereo not drawn)	inactive: 21.3%	–
CCCCNc1nc2c(-c3cccc(C)c3)nnn2c2ccccc12	inactive: -1.14%	–
COc1cc(C(=O)N2CCNC(=O)C2CC(=O)Nc2ccc(C)c(C)c2)cc(OC)c1OC (stereo not drawn)	inactive: 19.1%	–
Cc1ccccc1-c1nnc(SCC(=O)N(C)c2ccccc2)o1	inactive: 2.94%	–
COc1ccc2c(c1)c1c(c(=O)n(-c3ccccc3C)c(=O)n1CC(N)=O)n2C	inactive: 9.26%	–

Compound	activity change, negative = cytotoxicity	Potency
CCCN(CCC)C(=O)Cn1c(=O)n(CCCCCC(=O)Nc2ccccc2)c(=O)c2sccc21	inactive: 8.76%	–
COC(=O)c1ccc(NC(=O)Cn2ccn3nc(-c4ccc(OC)cc4)cc3c2=O)cc1	inactive: -0.472%	–
Cc1ccc(CNC(=O)CCc2c(C)nc3c(-c4ccc(F)cc4)c(C)nn3c2C)cc1	inactive: 2.25%	–
Cc1cccc(OCC(=O)Nc2cccc(C(=O)OCc3cc(=O)n4nc(C(C)C)sc4n3)c2)c1	inactive: 1.36%	–
Cc1ccc(/C=C/c2onc(C)c2S(=O)(=O)N2CCC(C(=O)Nc3ccc(OC(F)(F)F)cc3)CC2)cc1	inactive: -2.01%	–
O=C(NCC(c1cccnc1)N1CCc2ccccc2C1)C(=O)Nc1ccccc1F (stereo not drawn)	inactive: -28.6%	–
CCN(C(=O)CCS(=O)(=O)c1ccc2c(c1)CCN2C(C)=O)c1cccc(C(F)(F)F)c1	inactive: 14.2%	–
O=C(Nc1ccc(-c2nc3ccccc3o2)c(O)c1)c1cc(Cl)ccc1Cl	inactive: -17%	–
O=C(/C=C\c1ccc2c(c1)OCO2)NC1CC(=O)N(c2ccccc2)C1 (stereo not drawn)	inactive: 8.88%	–
CSc1ccc(CNC(=O)Cn2c(-c3cccs3)cc3cc(F)ccc32)cc1	inactive: -3.03%	–
O=C(Cn1nc(Cc2ccncc2)c2ccccc2c1=O)Nc1cccc(C(F)(F)F)c1	inactive: -21.4%	–
CNC(=O)c1c(NC(=O)c2cc(=O)c3cc(C)c(C)cc3o2)sc2c1CCCC2	inactive: -12.7%	–
CCN(CC)CCN(C(=O)c1ccco1)c1nc2c(C)c(C)ccc2s1	inactive: -12.1%	–
COc1ccccc1CNC(=O)Cn1c(-c2ccc(F)cc2)cc(C(C)=O)c1C	inactive: 3.47%	–
Cc1ccc(-c2cc(C(F)(F)F)n3nc(-c4cccc(Br)c4)cc3n2)cc1	inactive: -0.726%	–
CC(=O)Nc1ccc(NC(=O)CN2C(=O)CC(c3ccco3)Sc3ccccc32)cc1 (stereo not drawn)	inactive: -0.693%	–
CCn1c(=O)cc(OCC(=O)N2CCN(c3ccc(C(C)=O)cc3)CC2)c2ccccc21	inactive: 2.68%	–
COc1ccc(N2CCN(C(=O)CN3CCSc4ccccc43)CC2)cc1	inactive: 8%	–
CN(C(=O)c1c[nH]c2ccc(S(=O)(=O)Nc3cccc(C(F)(F)F)c3)cc2c1=O)C1CCCCC1	inactive: -4.75%	–
O=C(NCCc1ccc(Cl)cc1)c1nnc(Cc2ccc(F)cc2)o1	inactive: 2.94%	–
O=C(CCSCc1ccc(Cl)cc1)NCCc1ccccc1	inactive: -1.56%	–
CCCCNC(=O)CC1Nc2cc(C)c(C)cc2NC1=O (stereo not drawn)	inactive: -1.11%	–
COc1ccccc1NC(=O)c1nn(C)c2c1CS(=O)(=O)c1ccccc1-2	inactive: 0.722%	–
